For 22 molecules, binding signal results are on record in paper PMC12136788.

The other results are listed elsewhere or left out.

First the molecules themselves.
T1: UNK ZnF1-6 (called full-length) (human, UniProt Q9C0B0 30-357)
T1 sequence: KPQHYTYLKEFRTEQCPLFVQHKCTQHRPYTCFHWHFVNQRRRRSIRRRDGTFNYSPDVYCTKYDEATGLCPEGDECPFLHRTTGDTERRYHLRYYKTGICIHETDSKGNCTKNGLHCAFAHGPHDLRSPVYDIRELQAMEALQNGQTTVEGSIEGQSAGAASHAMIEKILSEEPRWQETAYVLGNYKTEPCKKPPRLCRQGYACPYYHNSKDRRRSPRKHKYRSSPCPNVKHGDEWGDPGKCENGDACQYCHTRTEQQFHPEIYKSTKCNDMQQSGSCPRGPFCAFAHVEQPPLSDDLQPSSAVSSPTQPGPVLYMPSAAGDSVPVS

B1: chr7:20412513:20412614:+|3pUTR|ENSG00000105855|msi1|total|mutant (ssRNA)
RNA: GGGAGUUCUACAGUCCGACGAUCUCCUUAAAAAUCCAGAGUUUAUAUUUUUUUUAUACCCUCACUUGUUUGCACUAACUUUACCGUGGACCAAGGCUGUUACCACCGGAAGGGACAAACUUCCUUGCCGGCAACUCAGUGUUACAACAGAGGAUUGAGCAUCA
B2: chr8:93925380:93925481:+|3pUTR|ENSG00000164951|msi1|FALSE|unique (ssRNA)
RNA: GGGAGUUCUACAGUCCGACGAUCAUUUAUUUCUAAAUGUUUUGACUGGGCAUUUUUCUUUUAAUGAAAUAUGUGGACUGCUCUAGCAAACCCUAUUUUCAGCUACUAUUUGAAUAUUCUUGAACACCACCACUGAAGAGUUUCCAACAGAGGAUUGAGCAUCA
B3: chr11:111726697:111726798:+|3pUTR|ENSG00000170145|unk|total|mutant (ssRNA)
RNA: GGGAGUUCUACAGUCCGACGAUCGGAAGCUUCCAAGCAGUUUUCUCUUCAUCACUACUAACAAACAAAACACUAAGAAGGCUCCGUAUCGCUCUUUUUCUGCGGGGCUACUCUGAAGUACUGACUUGCUUUCCAGUCUGAUUCCAACAGAGGAUUGAGCAUCA
B4: chr10:99879964:99880065:-|CDS|ENSG00000107554|unk|total|mutant (ssRNA)
RNA: GGGAGUUCUACAGUCCGACGAUCCAGAUGCCCUUCAGACCCAGACUCCACCUCCCAGCCAAGGUCAGGGGACUCUGCAGAUGCCGCCCGAGAUGUAAAGCAACCCACUGCCACGCCGAGGAGCUACCGGAACUUCAGGCAUCCCAACAGAGGAUUGAGCAUCA
B5: chr2:89040223:89040519:-|CDS|ENSG00000243290|control|control|control (ssRNA)
RNA: GGGAGUUCUACAGUCCGACGAUCAUCUGUAGGAGACAGAGUCACCAUCACUUGUCGGGCGAGUCAGGGUAUUAGCAGCUGGUUAGCCUGGUAUCAGCAGAAACCAGGGAAAGCCCCUAAGCUCCUGAUCUAUGCUGCAUCCAGCAACAGAGGAUUGAGCAUCA
B6: chr8:41262032:41262394:-|3pUTR|ENSG00000104332|msi1|total|mutant (ssRNA)
RNA: GGGAGUUCUACAGUCCGACGAUCGGCCGUUCUGACCUGUUGCCAGCAGAUACACAGGACAUGGAUGAAAUUCCCGUUUCCUCCCGUUUCUUCCUGCCGUACUCCUCUUUCCGAUCCUAAGUCUCUUACAAAAGCUUUGAAUACCAACAGAGGAUUGAGCAUCA
B7: chr15:59081107:59081211:+|CDS|ENSG00000157450|unk|total|mutant (ssRNA)
RNA: GGGAGUUCUACAGUCCGACGAUCUUCUCAAAUAUCUUCUCAUGCAACAUCUCAUCCUGUGGCACCCCCACCACCAACUCACUCCGCCAGUACAGCUGCACCAAUCCCUCAGCAUCUUCCUCCUACACACCAGCCAAUUUCGCACAACAGAGGAUUGAGCAUCA
B8: chr16:3022182:3022332:+|3pUTR|ENSG00000006327|msi1|total|mutant (ssRNA)
RNA: GGGAGUUCUACAGUCCGACGAUCCCACGGGGGUCACCCUGGGGGGUCCGGGACCUAUUUUUAACACCCGGGGGCUGGCCCACCCGGAGGGCUGGCCCUAAGAUACAGACCCCCCCAACUCCCCAAAGCGGGGAGGAGAUAUUUCAACAGAGGAUUGAGCAUCA
B9: chr15:55376998:55377117:-|CDS|ENSG00000260916|unk|FALSE|unique (ssRNA)
RNA: GGGAGUUCUACAGUCCGACGAUCUAUCUAUAUUGGAACUGCCAGUGAUGAUUCUGAUAUUGUUACCCUUGAGCCACCUAAGUUAGAAGAAAUUGGAAAUCAAGAAGUUGUCAUUGUUGAAGAAGCACAGAGUUCAGAAGACUUCAACAGAGGAUUGAGCAUCA
B10: ENSG00000136451:be:win_4201|3pUTR|ENSG00000136451|bound_else_gene|NA|bound_elsewhere_windowed (ssRNA)
RNA: GGGAGUUCUACAGUCCGACGAUCCCCUUCUGGUUGUAACCUGGUUGAGAGCUUCCCCUUUAUCAGAUUGGCAGCUAAACAGUUGUAUUAGAUAAUCCUUAAAUCUGACAUCCAGCCUGUUACGCUCUAGGGCUCGCUGCUUGGCAACAGAGGAUUGAGCAUCA
B11: chrX:53532849:53532950:-|3pUTR|ENSG00000086758|unk|FALSE|unique (ssRNA)
RNA: GGGAGUUCUACAGUCCGACGAUCGUGCUCCUCAGAUUCUGUGUUCAGAAGGAUUUGCUGCAUUGAGACUUGAAACCUUUGGAUAGGGGAAAAAAUUAUAUAUAUAUAUAUUUUUUUGUUCUGUUUGCAUUUCUUAAUUUGUGCCAACAGAGGAUUGAGCAUCA
B12: chr8:54147534:54147638:+|CDS|ENSG00000137547|unk|total|mutant (ssRNA)
RNA: GGGAGUUCUACAGUCCGACGAUCAAGUAUGGUUAUAUCUUACCUGAUAUCACUAAAGAUGAACUCUUCAAAAUGCUCUGUACCCGGAAGGAUCCAAGGCAGAUUUUCUUUGGUCUUGCUCCAGGAUGGGUGGUGAAUAUGGCCCAACAGAGGAUUGAGCAUCA
B13: chr2:196807445:196807622:-|CDS|ENSG00000187944|control|control|control (ssRNA)
RNA: GGGAGUUCUACAGUCCGACGAUCAAGGGCAGAGGUCUUGAUCUUGGAACAUUUCCAAAUCCUUUCCCCACGAAUGAAAAUCCUAGACCUCUCUCUUUCCAGUCAGAACUUACUGCUUCUGCAUCUGCAGAUUAUGAAGAGCAGCAACAGAGGAUUGAGCAUCA
B14: chr16:74621626:74621727:-|3pUTR|ENSG00000168411|msi1|total|mutant (ssRNA)
RNA: GGGAGUUCUACAGUCCGACGAUCCAUCUCAAAAAAAACAAACAAACAAAAAAAAACCCUGAUGCCAUUCCCAGUCCCCGUUGCCGGACAUCACAUUUAUAAAUCCAGGCUUCCGUCUUCUGGGCUCCACCAGUCUCUGCCCCACAACAGAGGAUUGAGCAUCA
B15: chr9:15468732:15468834:-|CDS|ENSG00000164985|unk|FALSE|unique (ssRNA)
RNA: GGGAGUUCUACAGUCCGACGAUCAAUUAGGAAAACAAUUAUGAUGAAUGUAUAUUGUUUUCUCAGAUACGGCGAUUCAAAGUUAGUCAGGUAAUCAUGGAAAAGUCUACAAUGUUGUAUAACAAGUUUAAGAACAUGUUCUUGCAACAGAGGAUUGAGCAUCA
B16: chr5:37333503:37333606:-|CDS|ENSG00000113569|unk|total|mutant (ssRNA)
RNA: GGGAGUUCUACAGUCCGACGAUCGAUGACAGCUGGUGUUGAUGGUCAUUCCUGGGCUCUUUCUGCGACCGAUGAAUUGAAAGCCGAUAAAAUAAUUACACCUUUAAACAAGGAUCAUAUUCCAAUAACUGAUUCACCAGUUGUCAACAGAGGAUUGAGCAUCA
B17: chr7:99546688:99548407:-|CDS|ENSG00000221909|control|control|control (ssRNA)
RNA: GGGAGUUCUACAGUCCGACGAUCCUUGACACGGUUAAAAACAAAGAAGAGAAAUAGGCUCAAUAGUGCACCAGAUAUGCGGGUAGCAUUAUCUUCAUGUGUUCCUGACUGGAAGGAACUUAUGAACAGACAAGCACACCCAUCCAACAGAGGAUUGAGCAUCA
B18: chr10:95611293:95611394:-|CDS|ENSG00000059573|msi1|total|mutant (ssRNA)
RNA: GGGAGUUCUACAGUCCGACGAUCCCCCUCCGAAGUGAAGUCACUCCGAACUGAGUAUGGGGACCUGGAAUUAUGCAUUGAAGCCGUGGACAACGUUCAGGAUGCCAUUGACCACAUCCACAAGUAUGGCAGCUCCCACACGGACAACAGAGGAUUGAGCAUCA
B19: chr15:52122579:52122653:-|3pUTR|ENSG00000069966|msi1_unk|FALSE|overlapping (ssRNA)
RNA: GGGAGUUCUACAGUCCGACGAUCUCUUCACAUGUAAAUAGAUAUUACUUCUAGAGGAGCUUAGAGUUUAUUGCAGUGUAGCUUAGGGGAGCAACCCAUGGCUCACAGGUCACUAAGCGUCUCCAAUAUGACUAUUAAAACUGUCAACAGAGGAUUGAGCAUCA
B20: ENSG00000070961:be:win_1901|CDS|ENSG00000070961|bound_else_gene|NA|bound_elsewhere_windowed (ssRNA)
RNA: GGGAGUUCUACAGUCCGACGAUCAAACUGUGAUUGAACCGAUGGCAUCAGAAGGCUUGAGAACCAUAUGUCUUGCAUUCAGAGAUUUUCCAGCAGGAGAACCAGAACCAGAGUGGGAUAAUGAAAAUGAUAUUGUCACCGGCCCAACAGAGGAUUGAGCAUCA
B21: chr12:56162362:56162467:-|3pUTR|ENSG00000139613|unk|total|mutant (ssRNA)
RNA: GGGAGUUCUACAGUCCGACGAUCGGUUCCUCCCACCAGGCCCUUUGUUCCUCAUGUCCCCAUGUUUCUCUCCCUCUGCGUCUCCGCACCUUUCUUCUGUUCAAAGUUUUCUGUAAAUUUUCUCUUUUUUUCUUUCUUUCUUUUCAACAGAGGAUUGAGCAUCA
B22: chr1:217137657:217137758:-|5pUTR|ENSG00000196482|msi1|FALSE|unique (ssRNA)
RNA: GGGAGUUCUACAGUCCGACGAUCCGGGCUCCAGGCCGGGCUCCCUAAACGGGUCAGCAAUUGGAGCGGGAAGGCCGGACAGGUAGGUGGCGUGGGGCGCACAAGCCCGGCAGCGAUAACCGGGGACGUCUGUACUGCUUCCAACAACAGAGGAUUGAGCAUCA

In the experiment the target is T1, UNK ZnF1-6 (called full-length). Description: nsRBNS (natural sequence RNA bind-n-seq); RBNS binding buffer (assumed for nsRBNS): 25 mM Tris pH 7.5, 150 mM KCl, 3 mM MgCl2, 0.01% Triton X-100, 500 ug/ml BSA, 20 U/ml SUPERase-In, 4 C; UNK is unkempt and MSI1 is Musashi-1; names of the RNAs are library labels; protein concentration not given here; high values mean tight binding.
B1 registered a binding signal of 0.607 enrichment R.

On to B2, for which the binding signal was found to be 0.718 enrichment R.

With B3, the binding signal was found to be 0.424 enrichment R.

For B4, the binding signal is 1.07 enrichment R.

The molecule B5 registered a binding signal of 0.551 enrichment R.

In the case of B6, the binding signal turned out to be 0.529 enrichment R.

Take B7: the binding signal was 0.944 enrichment R.

For the molecule B8, the binding signal came to 0.486 enrichment R.

For the molecule B9, the binding signal was found to be 0.491 enrichment R.

Turning to B10, the binding signal amounted to 0.608 enrichment R.

B11: the binding signal turned out to be 0.691 enrichment R.

B12 had a binding signal of 0.536 enrichment R.

On to B13, for which the binding signal was determined as 0.395 enrichment R.

On to B14, for which the binding signal was determined as 1.18 enrichment R.

In the case of B15, the binding signal was found to be 0.443 enrichment R.

Take B16: the binding signal is 0.505 enrichment R.

In the case of B17, the binding signal came out at 0.467 enrichment R.

B18 displayed a binding signal of 0.482 enrichment R.

Molecule B19 had a binding signal of 0.809 enrichment R.

Turning to B20, the binding signal turned out to be 0.571 enrichment R.

The molecule B21 registered a binding signal of 1.61 enrichment R.

B22 showed a binding signal of 0.987 enrichment R.
